± gives the standard deviation of the averaged measurements. Some of the results follow.
System: PfAP2-EXP AP2 domain (GST-tagged)
Assay: gcPBM binding intensity (ln(normalized median fluorescence intensity)); higher = stronger DNA binding
Outline: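 An Agilent 4 × 180k array carrying primer-extended double-stranded 36-bp intergenic genomic probes and negative controls received GST-tagged P. falciparum DNA-binding domains expressed in E. coli, about 25 μg on average, for 1 h. The binding buffer contained 1× PBS, 1% milk, 0.2 mg/ml BSA, 0.5% salmon testes DNA and 0.03% Triton X-100. Binding intensity is the top Masliner-normalised natural-log median intensity across replicate spots of either probe orientation, read after Alexa488 anti-GST antibody staining and a 488 nm scan.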

| Sequence | gcPBM binding intensity (ln) |
| --- | --- |
| CATCCTATTACTTGGTGTACTATTTTATATTGAATA [XGTACX_site1050] | 8.71 ± 0.29 |
| ATAAACAAGACGCAACAAAGTAGAAATTAAAAATAA [CACACA_negctrl_site345] | 8.8 ± 0.38 |
| AAAAATGGAATTATCTGTACATATATAGTTTTTAAA [XGTACX_site5580] | 8.26 ± 0.38 |
| GTTTATAAAATAAGAAGTACTTTATGAGAACCATAT [XGTACX_site5789] | 8.66 ± 0.45 |
| TGGTACCTTACTTTTACACACTTTTTTTTTTTTTTT [CACACA_site1557] | 8.64 ± 0.61 |
| CCATTTTAAATATGCACACAGATGCACTAACACATT [CACACA_site5099] | 9.1 ± 0.19 |
| AATATATACGCATGCGCACACACAAGTGGGAAATTT [CACACA_site1786] | 9.38 ± 0.35 |
| TTTTGAGTAGCCTATTGTACGAACTTTTTAAATACA [XGTACX_site1224] | 8.38 ± 0.28 |
| CTATCTACATAAACGTGTACCCACAAATAAATAAAT [XGTACX_site5210] | 8.85 ± 0.12 |
| TTTTTTAAAAAAGTTTTCTGTATTTATATATATATA [CACACA_negctrl_site31] | 9.69 ± 0.12 |
| TTAACCTTTTGATATTGTACCCATAATCTAATACAA [XGTACX_site769] | 8.63 ± 0.38 |
| TCATATGTATAAATTAGTACATATTTAATGGATATA [XGTACX_site3298] | 8.39 ± 0.34 |
| AAATGAAAATAAAGCAACAGAAATATAATGTATTAT [GTGCAC_negctrl_site508] | 8.82 ± 0.41 |
| AAAATAATAACATTGTGTACATAAAAAGAAAACCTT [XGTACX_site840] | 8.7 ± 0.39 |
| ACATTTTATACGATAAAATGTATAAGATTATGAAGA [TGCATGCA_negctrl_site476] | 8.69 ± 0.35 |
| AGGCACGTGTTATATACACACATAATCAAATAAACT [CACACA_site7852] | 8.76 ± 0.56 |
| TTATGTCATAAATGCACACATATATATATACATATA [CACACA_site1588] | 8.69 ± 0.26 |
| TATGAATGGTTAAGTACACACATATTAATATATGTA [CACACA_site3490] | 8.49 ± 0.45 |
| TATATTTGGAAATATTCTCAATTGGTACAAATAAAA [CACACA_negctrl_site1202] | 8.56 ± 0.41 |
| GCCCAACCAAAATATACACACAGTTGAATGAATAAA [CACACA_site2597] | 8.56 ± 0.61 |
| TAAAAGAAATATACATGTACATAAATATATATATAT [XGTACX_site1276] | 9.86 ± 0.2 |
| TTGGTAATAATTTGAGGTACACTGTATAAATTTTTT [XGTACX_site909] | 8.4 ± 0.35 |
| ATTTTTTTGTGTTTGGTACACACGTTATAAAAAATA [CACACA_site1345] | 8.49 ± 0.33 |

| Sequence | gcPBM binding intensity (ln) |
| --- | --- |
| AATAATAAATTATGGTGTACGCATTTGTATATATAC [XGTACX_site5417] | 8.77 ± 0.28 |
| TTTTTTTCTTAAAGATGTACTTTTTTAAAATAATCT [XGTACX_site3663] | 8.54 ± 0.45 |
| GGAAAATACATTCCAGTGCATTAATTTATTCAACGT | 8.58 ± 0.14 |
| TTTTGGATCATTTGTTGTACATATGCAAAAAAAAAA [XGTACX_site3157] | 8.86 ± 0.47 |
| AAAAAAATAAAATTATATAAAATAAATTTTTATAAT [GTGCAC_negctrl_site587] | 7.75 ± 0.35 |
| TATGATACATAATATACATGCATACACAACATTCAG [TGCATGCA_site487] | 8.74 ± 0.28 |
| GATATGTGACGTTTGGTATTTTTGATGTTGGTAGGA [CACACA_negctrl_site1448] | 8.73 ± 0.46 |
| TTTATATATTATTAATGTACAAAATTTTTATTGCAT [XGTACX_site3329] | 8.7 ± 0.19 |
| AATTCTTTTTTCAACACACACACACTAGAAAATATA [CACACA_site5681] | 8.77 ± 0.53 |
| TAAATACAGAAACACACACACAAATATATACATACA [CACACA_site2880] | 8.75 ± 0.65 |
| ACCTGGACAAAAATAAATAAATAAATAAATAAATGA [GTGCAC_negctrl_site238] | 8.55 ± 0.59 |
| ACATTAAGACACATTGCACACGTGCACCCATAGAAA [CACACA_site8029] | 9.84 ± 1.1 |
| GGAATTATATGAAATAAACACACATATGTAATATTA [CACACA_site8586] | 8.51 ± 0.39 |
| TTTTTTTTTTTTTTGGTGCGTTTATATATAAATATA | 8.39 ± 0.28 |
| TACATCGACCTATGTACATGCAAATTATTTTTATTT [TGCATGCA_site182] | 8.86 ± 0.28 |
| AAAATCTAATATAATGCACACATAAAAAAAAAATCA [CACACA_site8871] | 8.79 ± 0.13 |
| CTTTTAATATGTGTAGTGCATTTTTTTTTTTTTTTT [GTGCAC_site9727] | 8.69 ± 0.042 |
| AAAAAAAAAAAAAACACACACAACACCCATACCTTA [CACACA_site3621] | 8.63 ± 0.36 |
| GTCCTTCATCATATTTAACACACAGAGAAAAAGCGG [CACACA_site7979] | 8.89 ± 0.43 |
| AATAATTGTTAAAGGTGTACAATACGTATGTAAGAA [XGTACX_site1328] | 9.12 ± 0.33 |
| AACAGATATATATGTAGTACATGTTCTAGATATTTT [XGTACX_site1208] | 8.51 ± 0.36 |
| AATATAAACATAGATAGATAAATAAATAAATAAACA [GTGCAC_negctrl_site567] | 8.68 ± 0.47 |
| AAAAAAAATAAAAATAAAAATAAAAATAAAAATAAA [GTGCAC_negctrl_site437] | 8.38 ± 0.35 |

| Sequence | gcPBM binding intensity (ln) |
| --- | --- |
| TATCATTTTGTATATAGTACATATATAAAATCGTTA [XGTACX_site3875] | 8.35 ± 0.29 |
| GGAATATTTATACATACACACATATATTTATTTATA [CACACA_site6883] | 8.52 ± 0.33 |
| AGTCATTAAATATAATGTACATGGAAAAACAGCTGA [XGTACX_site7944] | 9.01 ± 0.42 |
| ATAAAAATAACATATAAACACACATATATATATATA [CACACA_site9267] | 10 ± 0.19 |
| CAAGCACCCAGACACACACACACACCCACACCCACA [CACACA_site369] | 8.36 ± 0.3 |
| ATGTAGACATAATGGGGTACAAAAAAAAAAAAAAAA [XGTACX_site881] | 8.34 ± 0.4 |
| TTTTGTAGCAAAAAATAGGAAAAAAAAAAATTAAAT [GTGCAC_negctrl_site8] | 8.53 ± 0.4 |
| ATATAATTACCATATGGTACACACATATATATATGT [XGTACX_site7393] | 9.2 ± 0.37 |
| ATATTACCCATATATGCACACATTGTAGTTATTTAT [CACACA_site2636] | 9.01 ± 0.36 |
| TTAAGATACAAAAAAGTGCATATTTTTTAACAAAAA | 8.54 ± 0.32 |
| GATATATAAATAGATACACACATACATACATACATA [CACACA_site6260] | 8.75 ± 0.62 |
| ATATCGTGTGCATTAACACACATTTATTTGAATAAA [CACACA_site7162] | 8.47 ± 0.28 |
| CACATACCCATACAAACACACATTATATATATATAT [CACACA_site4965] | 9.96 ± 0.23 |
| AAAAAAAAAAAAAAAACACACATAAATAGCTCAAAT [CACACA_site3973] | 8.69 ± 0.2 |
| TACGATTAAAAAAAATGTACAGATTTTTATAGAATA [XGTACX_site6561] | 8.35 ± 0.34 |
| GACAAATTATTGTGTACACAATATTATTATATATAC [CACACA_site6020] | 8.87 ± 0.16 |
| ACAAATAAAAATATTACACACACTATTCTAGTGATA [CACACA_site6812] | 7.99 ± 0.28 |
| TAAATATATATAATTACACACTTTTCTATAATATGA [CACACA_site711] | 8.22 ± 0.39 |
| CTTATGTTTTTTAAGTGTACATATTATACGTATTAT [XGTACX_site1176] | 8.86 ± 0.28 |
| TTAAGATATATAAAGAGTACACATAAGAGTAATGCT [XGTACX_site58] | 8.52 ± 0.4 |
| TATAATACATTATATTGTACTATATTATAATAAATT [XGTACX_site5934] | 8.12 ± 0.43 |
| TTTTTTTCTTTATTAGCACACATAATATTATATATG [CACACA_site8841] | 8.84 ± 0.28 |
| TATATCATTATATAAACACACAATATGTTTTTTATA [CACACA_site3781] | 8.09 ± 0.36 |

| Sequence | gcPBM binding intensity (ln) |
| --- | --- |
| AAAATGAACAGACACACACACATATTTATATTTATA [CACACA_site7182] | 8.57 ± 0.45 |
| TATTAATCTAATTCATAAAAAATGATCTATTTTGTT [CACACA_negctrl_site1035] | 8.01 ± 0.49 |
| ACCTAAAAGGTATAATATATAAATAAAAAAAAAAAT [CACACA_negctrl_site134] | 8.4 ± 0.59 |
| TAGAATAATCTATAAACACACAAACACAACAAAAGA [CACACA_site7861] | 9.09 ± 0.35 |
| AACATTTGATAAGATACACACACAAGGAAAAAAATA [CACACA_site8004] | 8.91 ± 0.62 |
| TTATAAAAATAATATCGTACAAATGACATAGATGAA [XGTACX_site2570] | 8.76 ± 0.42 |
| AGATATTTTATAATTACACACATGAGGTTATTTGAA [CACACA_site1999] | 8.32 ± 0.39 |
| CATATACATAAACACACACACACATAAATAAATATA [CACACA_site4864] | 8.68 ± 0.54 |
| ACATAAAATTGTTAAAAAATTGTATAAATAATACAT [XGTACX_negctrl_site557] | 8.12 ± 0.18 |
| TATTATTTTTTAAATTGTACAATAAATTATAAAAGG [XGTACX_site1162] | 8.41 ± 0.39 |
| TATAGGTATATATAAGTGCAATATATATGTATATAC [GTGCAC_site9427] | 8.98 ± 0.092 |
| GAAAAGCAGATAAATGTGCACATATATGTTTGTATA | 8.92 ± 0.31 |
| CAGCTCTTAAAAATTACACACATATACTCATATATA [CACACA_site5757] | 8.26 ± 0.36 |
| GGTCTTTTCAACACACGTACATAAAAATATTATACA [XGTACX_site5360] | 8.92 ± 0.37 |
| TATATATTGATATGCACACCTATGTATTGATGTATA [CACACA_site1073] | 8.56 ± 0.35 |
| TAAACATATAGAGGGGTGCAAAGAATTGTAAAATTT | 9.03 ± 0.014 |
| AATAATAATAAATATACACACATCATACAATTAACA [CACACA_site3679] | 8.73 ± 0.46 |
| TATTTTTTTCTTACTACACACATATAGATGCTTTCC [CACACA_site7825] | 8.84 ± 0.41 |
| TAATATAATATATATACACACAAGAAATACAAAACG [CACACA_site1378] | 9.01 ± 0.61 |
| ACATAAATTTAATACACACACAAAGAAAAAAAAAAA [CACACA_site4088] | 8.59 ± 0.49 |

— the supplement of paper PMC11417369
